± gives the standard deviation of the averaged measurements. The full ranking holds about 33,000 sequences; the median of “E-score (dimensionless, -0.5 to 0.5)” is about -0.049, and the highest 2% start at about 0.37. The list shows a part of the results.
What follows are sequences tested on T1, PmTbr T-box DNA-binding domain (GST fusion) (assay: PBM E-score of 8-mer (E-score (dimensionless, -0.5 to 0.5)); Tbr is Tbrain of the sea star Patiria miniata (Pm) or the sea urchin Strongylocentrotus purpuratus (Sp); higher = stronger binding preference; most listed sequences are background and not binding sites). Conditions: the construct has about 5 more residues each side.
T1 sequence: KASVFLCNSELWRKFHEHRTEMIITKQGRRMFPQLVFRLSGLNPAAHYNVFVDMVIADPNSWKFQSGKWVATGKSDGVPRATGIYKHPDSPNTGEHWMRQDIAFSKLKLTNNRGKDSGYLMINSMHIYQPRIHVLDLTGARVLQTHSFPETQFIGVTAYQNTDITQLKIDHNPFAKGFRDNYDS
Method: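 Universal protein-binding microarray (Agilent AMADID 016060, 60-bp probes with a 35-bp variable region) incubated with 200 nM GST-fused Patiria miniata Tbr T-box DNA-binding domain (residues 272-466) in PBS pH 7.5. Scored for every ungapped 8-mer (given with its reverse complement) by the Universal PBM Analysis Suite as E-score (modified Wilcoxon-Mann-Whitney enrichment, range -0.5 to 0.5; >0.45 counts as bound) and Z-score of median probe intensity. Two replicate arrays (datasets 1 and 2).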
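Also: 200 nM protein in PBS on universal arrays averaged over duplicate arrays.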

Sequence	PBM E-score of 8-mer
GATACCGC	-0.00527 ± 0.061
CGAGACCA	-0.0217 ± 0.093
CGTCACAA	0.175 ± 0.033
CAGTTAGA	-0.168 ± 0.025
AAGAACTC	-0.14 ± 0.017
GCCTGAGA	-0.00076 ± 0.052
ATGTCATG	-0.158 ± 0.058
GCAAGCAC	0.132 ± 0.011
TATACACA	0.0604 ± 0.029
TCCTATCA	0.0238 ± 0.1
ATTCTATA	-0.236 ± 0.028
ATACGCTG	-0.105 ± 0.013
CTAAGGTC	-0.13986 ± 1.4e-05
GGACGAGA	-0.0167 ± 0.022
CATGGGCG	0.0259 ± 0.0044
CTACAAGC	0.0404 ± 0.0068
ACAAAATG	0.137 ± 0.059
GGTAGCGA	0.217 ± 0.011
CTCGTTCC	-0.238 ± 0.041
GAAGAGCA	-0.00224 ± 0.16
ACGCGCAC	0.0739 ± 0.028
CTTGCTTA	0.1055 ± 0.00096
CAAGAGCA	-0.0882 ± 0.084
ATCCACCA	-0.0511 ± 0.051
CCACGCAA	-0.0508 ± 0.0079

Sequence	PBM E-score of 8-mer
GAAAAGGC	0.132 ± 0.028
TACACCGA	0.042 ± 0.083
ATATGCCA	0.04272 ± 0.00018
AACCCGGT	-0.189 ± 0.041
TCAACAAA	-0.12 ± 0.043
AACACATA	0.373 ± 0.0082
GTGCCTGA	-0.0569 ± 0.042
ACACGGTA	0.11 ± 0.064
ACAACGGT	0.233 ± 0.0053
AAACGATG	-0.0999 ± 0.069
TAGCTGCA	-0.0612 ± 0.029
ATATGGGC	-0.227 ± 0.019
CCACCGAC	0.0896 ± 0.016
AATCCTGC	-0.0407 ± 0.025
AAAGAGAT	0.0271 ± 0.059
TACAGATA	-0.0889 ± 0.062
AGAATGAA	-0.101 ± 0.08
TAGTTGGA	-0.315 ± 0.039
TCGGCTAA	0.0882 ± 0.0088
AGACGGTA	-0.175 ± 0.026
AACCCGTT	-0.121 ± 0.037
GCTCAGAC	-0.149 ± 0.02
ACTCGAGT	-0.0518 ± 0.1
CACCCAGC	0.19 ± 0.021
AAAACGGG	-0.146 ± 0.0023

Sequence	PBM E-score of 8-mer
AGGCAGCC	-0.182 ± 0.11
AATTGGGG	-0.211 ± 0.0072
GAAGCTCA	0.0428 ± 0.0011
CGCCTCCC	0.199 ± 0.0023
ACTACAGG	-0.128 ± 0.02
CAGAGGGC	-0.184 ± 0.056
ACTCGGAC	0.0843 ± 0.0036
ATGACGAA	-0.065 ± 0.04
CTACCAGC	0.0264 ± 0.083
ACTAAGCT	-0.153 ± 0.021
AGACTGCC	-0.115 ± 0.05
CACCACCG	0.245 ± 0.067
CCGTGGGC	-0.252 ± 0.033
AGCCAGTC	-0.0565 ± 0.013
AGAAGCGG	-0.0886 ± 0.016
AGTATGAA	-0.247 ± 0.075
AGTTTGAG	-0.146 ± 0.046
GCAGTCGC	-0.00368 ± 0.029
GGCCGTGA	0.109 ± 0.00065
ATAGGGGA	-0.275 ± 0.012
GACGTTGC	0.0262 ± 0.013
ATATCATA	-0.0109 ± 0.041
ATATGCGC	0.0237 ± 0.1
ATGAGGCA	-0.141 ± 0.065
CTTATAGC	-0.0766 ± 0.031

Sequence	PBM E-score of 8-mer
CATCCAAC	-0.02 ± 0.0088
AGGTACCC	-0.213 ± 0.093
AAGTCCCC	-0.189 ± 0.0086
CATAGTAG	-0.286 ± 0.031
CTATGAGC	-0.0478 ± 0.0082
TAGCTAGA	-0.038 ± 0.022
AAGTACGG	-0.174 ± 0.029
AACCCGGG	-0.175 ± 0.057
GAGGGTGA	0.279 ± 0.005
CGGCACCG	0.0968 ± 0.041
AATGCCGC	-0.00673 ± 0.092
CACGACTC	0.17 ± 0.0075
GAACAACC	-0.0331 ± 0.022
CAAACTTG	0.035 ± 0.026
CAATGCTC	-0.299 ± 0.038
ATTGTAAG	-0.12 ± 0.062
CCACAAGG	-0.122 ± 0.046
GCGGATCC	-0.0974 ± 0.014
AATTCATG	0.0832 ± 0.065
CCACTAGC	0.0972 ± 0.082
CACCGATC	0.138 ± 0.051
CAATGCCC	-0.0602 ± 0.0035
AGGTGAAA	0.347 ± 0.022
ACTCACAA	0.1 ± 0.01
GAACGCGC	0.0649 ± 0.023

Sequence	PBM E-score of 8-mer
AGAGTGGA	-0.115 ± 0.077
GCGACGAC	0.175 ± 0.045
GCCGTTCA	-0.0278 ± 0.0069
GAGACCTA	-0.16 ± 0.033
CCATAGAG	-0.173 ± 0.023
ACCACAAT	-0.0998 ± 0.059
ATGCCGAC	0.0808 ± 0.019
GCCGCCGC	-0.149 ± 0.089
ATGGGGAC	-0.235 ± 0.033
ACCTCTCA	0.267 ± 0.034
CTACTAAC	0.169 ± 0.017
CAAAGACG	0.144 ± 0.014
AACGCCAC	0.253 ± 0.026
CATGATTA	-0.115 ± 0.049
AAAGCAGC	-0.00106 ± 0.013
CTCATCGA	-0.173 ± 0.021
ACTACCCG	-0.0752 ± 0.029
CAAGACAG	-0.0983 ± 0.038
AGACGGTG	0.0205 ± 0.033
CAGCAATG	0.178 ± 0.039
CTACCTTC	-0.0424 ± 0.013
ACGAGTTC	0.0367 ± 0.01
CCCAGCGA	-0.0742 ± 0.03
ACACAGAT	0.0624 ± 0.058
GGCCAACA	0.0288 ± 0.058

Sequence	PBM E-score of 8-mer
CAATCGAC	0.102 ± 0.015
ACGAGAGT	-0.0209 ± 0.093
AGGTTTCC	-0.109 ± 0.03
GTTATTTA	-0.0965 ± 0.028
AGCTTAGC	-0.0359 ± 0.0015
AAAGCTGA	-0.146 ± 0.037
ATGAATAG	-0.127 ± 0.053
AGAGGAAC	-0.288 ± 0.0084
CTCCTCCA	-0.0795 ± 0.023
CCCTTAGG	0.026 ± 0.015
GTGAAAAA	0.336 ± 0.054
AGCGTTAG	0.207 ± 0.014
ATGAACAG	-0.0699 ± 0.013
ACTGACAG	0.19 ± 0.015
CAGGCGTC	0.254 ± 0.0077
CCATAATC	-0.225 ± 0.05
AGGCTGAC	0.141 ± 0.052
ATGCCGTG	-0.116 ± 0.1
AAGCTAGC	0.036 ± 0.064
CAGAGAAG	-0.145 ± 0.04
GGAATAGA	-0.269 ± 0.15
AAGGGTAT	-0.164 ± 0.026
GAAGTTGA	0.0232 ± 0.0042
CGACCGAA	-0.241 ± 0.048
AGATCTAA	-0.0476 ± 0.065

Sequence	PBM E-score of 8-mer
AGAGTGCG	0.288 ± 0.046
GCCCGTAA	-0.225 ± 0.044
CGCCACTA	0.238 ± 0.018
CGGAGACG	-0.205 ± 0.048
CGAACTGA	-0.0267 ± 0.019
TCCACAGA	-0.13 ± 0.045
GAACTCCA	-0.0288 ± 0.045
CGCCTAAG	0.0221 ± 0.02
ATCGTGCG	0.159 ± 0.055
CCAAGTCG	0.103 ± 0.048
GCAGATAA	0.0232 ± 0.027
AATTATGA	-0.155 ± 0.0028
AGCTTACG	-0.171 ± 0.071
CCCACCTC	0.2907 ± 0.0021
GAGACAGC	0.0107 ± 0.051
GCCGCTGA	-0.113 ± 0.074
AATGCTGA	-0.04853 ± 0.00042
GTATAAGA	-0.152 ± 0.019
GACCCTCA	-0.0733 ± 0.018
ATATACGC	-0.0645 ± 0.11
CGAAGTCC	0.047 ± 0.062
TGCCCGCA	-0.111 ± 0.027

Source: the supplement of paper PMC4166925
